{
  "source": "paper PMC11006913",
  "origin": "cited, not measured here",
  "note": "The list shows a part of the results.",
  "data": [
    {"target": "T1, PBX4 (Homo sapiens) (UniProt Q9BYU1)", "T1 sequence": "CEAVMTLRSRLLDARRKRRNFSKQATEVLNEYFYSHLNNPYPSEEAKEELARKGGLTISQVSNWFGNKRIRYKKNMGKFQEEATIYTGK", "details": "PBM; conditions not shown; double strand, one strand shown; scale: upbm affinity estimate (log intensity, higher = more binding, comparable within an allelic series)", "values": [
      {"sequence": "ACTTCTTC [8-mer ACTTCTTC]", "binding signal": 9.99},
      {"sequence": "ACATCAAA [8-mer ACATCAAA]", "binding signal": 10.8},
      {"sequence": "GTCATCAA [8-mer GTCATCAA]", "binding signal": 10.8},
      {"sequence": "AACTGGTC [8-mer AACTGGTC]", "binding signal": 9.98},
      {"sequence": "GTATCGGA [8-mer GTATCGGA]", "binding signal": 10},
      {"sequence": "AATTCGTG [8-mer AATTCGTG]", "binding signal": 10},
      {"sequence": "ACTCGTCA [8-mer ACTCGTCA]", "binding signal": 11},
      {"sequence": "ACTGGCTC [8-mer ACTGGCTC]", "binding signal": 9.91},
      {"sequence": "GCGCTCTA [8-mer GCGCTCTA]", "binding signal": 9.89},
      {"sequence": "CGGCCGAG [8-mer CGGCCGAG]", "binding signal": 9.71},
      {"sequence": "GCACCAAC [8-mer GCACCAAC]", "binding signal": 9.89},
      {"sequence": "TCATGTCA [8-mer TCATGTCA]", "binding signal": 11},
      {"sequence": "TATGTCAA [8-mer TATGTCAA]", "binding signal": 10.8},
      {"sequence": "GCGTCTGA [8-mer GCGTCTGA]", "binding signal": 9.88},
      {"sequence": "AGTTGACG [8-mer AGTTGACG]", "binding signal": 10.6},
      {"sequence": "CTGCGAAG [8-mer CTGCGAAG]", "binding signal": 9.79},
      {"sequence": "GTTGACGA [8-mer GTTGACGA]", "binding signal": 10.7},
      {"sequence": "ACGTCAAT [8-mer ACGTCAAT]", "binding signal": 10.8},
      {"sequence": "CGACTGAA [8-mer CGACTGAA]", "binding signal": 9.82},
      {"sequence": "AACCTCGG [8-mer AACCTCGG]", "binding signal": 9.88},
      {"sequence": "CCCAGGTA [8-mer CCCAGGTA]", "binding signal": 9.97},
      {"sequence": "ACTTGGCC [8-mer ACTTGGCC]", "binding signal": 9.78},
      {"sequence": "ATGTCACA [8-mer ATGTCACA]", "binding signal": 10.7},
      {"sequence": "GCACGCAA [8-mer GCACGCAA]", "binding signal": 9.74},
      {"sequence": "CACATCAA [8-mer CACATCAA]", "binding signal": 10.9},
      {"sequence": "CGGTGTGC [8-mer CGGTGTGC]", "binding signal": 9.74},
      {"sequence": "ATTCGTCA [8-mer ATTCGTCA]", "binding signal": 10.9},
      {"sequence": "CCGTCAAA [8-mer CCGTCAAA]", "binding signal": 10.8},
      {"sequence": "CCGCGGGA [8-mer CCGCGGGA]", "binding signal": 9.79},
      {"sequence": "CCGTGGCA [8-mer CCGTGGCA]", "binding signal": 9.84},
      {"sequence": "ATCGGGCA [8-mer ATCGGGCA]", "binding signal": 9.96},
      {"sequence": "CTTGACTC [8-mer CTTGACTC]", "binding signal": 9.97},
      {"sequence": "CACCCCAA [8-mer CACCCCAA]", "binding signal": 9.96},
      {"sequence": "ACGCTACT [8-mer ACGCTACT]", "binding signal": 9.87},
      {"sequence": "ACGCTGTC [8-mer ACGCTGTC]", "binding signal": 9.94},
      {"sequence": "TCATCAAA [8-mer TCATCAAA]", "binding signal": 10.8},
      {"sequence": "CACGTCAA [8-mer CACGTCAA]", "binding signal": 10.8},
      {"sequence": "CCGGAGGC [8-mer CCGGAGGC]", "binding signal": 9.56},
      {"sequence": "ACGTCAAC [8-mer ACGTCAAC]", "binding signal": 10.8}
    ]}
  ]
}
